From paper PMC7819943, “Rice protein-binding microarrays: a tool to detect cis-acting elements near promoter regions in rice”
The list shows a part of the results.

target: T1, OsWOX13 (Oryza sativa, UniProt Q5QMM3 1-267); experiment: protein-binding microarray (RPBM); PBS, 2% BSA, 51.3 ng/ul salmon testes DNA, 50 uM zinc acetate, 200 nM TF, 25 C, 1 h; high values mean tight binding; details: protein: recombinant; tags: N-terminal polyhistidine and DsRed monomer fusion (pET32a); label: CyDye5-dUTP incorporated in the synthesized complementary strand; 3' TTTTT single-stranded linker to array surface; dsDNA, one strand shown
T1 sequence: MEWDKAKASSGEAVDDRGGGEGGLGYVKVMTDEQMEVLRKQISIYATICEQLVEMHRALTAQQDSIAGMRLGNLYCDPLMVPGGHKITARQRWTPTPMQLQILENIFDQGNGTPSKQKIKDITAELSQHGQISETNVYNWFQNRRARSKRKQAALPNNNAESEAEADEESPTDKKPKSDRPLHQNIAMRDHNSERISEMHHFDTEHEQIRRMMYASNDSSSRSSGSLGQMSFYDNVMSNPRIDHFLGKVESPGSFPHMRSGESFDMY
Procedure, shortened: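 Binding signal is defined as the fluorescence intensity of each feature in arbitrary units, read on an Axon 4000B scanner. Transcription factors with N-terminal polyhistidine and DsRed fusions came from E. coli BL21-CodonPlus and were purified on Ni–NTA. They were incubated at 200 nM for 1 h at 25 °C on a custom Agilent array that had been made double-stranded with Cy5-dUTP, with 50 µM zinc acetate present, and the array was washed.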

In order of falling binding signal:
1. CTTAATTGGAATCCGACAGTGGGTAATGGAGGAGATGGGCCGGAGTCACCTAGTGCAG  51900 fluorescence intensity (a.u.)
2. TCGCCATGATTGATCTGATTGCCTACTTAAATTACATTTCCGGAGTCACCTAGTGCAG  50800 fluorescence intensity (a.u.)
3. CGGATTAATTAGGCTTAATAAATTTGTCTCGCGGTTTATACGGAGTCACCTAGTGCAG  44500 fluorescence intensity (a.u.)
4. ACATTTAATTGATTTTCTGAATTCTACAACGGCATCTTTTCGGAGTCACCTAGTGCAG  40300 fluorescence intensity (a.u.)
5. ATTCTTGATTTTGATGGCTCAATCAAGCATCAAAACGTGCCGGAGTCACCTAGTGCAG  36500 fluorescence intensity (a.u.)
6. CTTAATTTGCTTACAATTCCTTCAACTACTAATTAAGTATCGGAGTCACCTAGTGCAG  34100 fluorescence intensity (a.u.)
7. CAGGTTGTGATTGATATTTTACATCTAGAACAACGTAATTCGGAGTCACCTAGTGCAG  32900 fluorescence intensity (a.u.)
8. TTATAAATTAACTTTTGACAGTTTCGTAGTCAGTCACAGACGGAGTCACCTAGTGCAG  31600 fluorescence intensity (a.u.)
9. ACGGCCAGTTTTACATAATTAATTAATTGTTGGTTACCAACGGAGTCACCTAGTGCAG  27100 fluorescence intensity (a.u.)
10. TTTGGAATTGACAGCGCAAATGCAGTTGTCCTGGAGGATACGGAGTCACCTAGTGCAG  26300 fluorescence intensity (a.u.)
11. GGCTTGATTTATTGATTTGTTCTTTAGTACTCCAGTTCAACGGAGTCACCTAGTGCAG  25700 fluorescence intensity (a.u.)
12. TTTCAATTAATTTTCTGCAGTCGTACATACTTGCGTTTCTCGGAGTCACCTAGTGCAG  25700 fluorescence intensity (a.u.)
13. AGATTGATATAATTATCATTTATTTTATTGTAAGTTGTTTCGGAGTCACCTAGTGCAG  23400 fluorescence intensity (a.u.)
14. AATATATTGACTGTTCAGTCAGACTCAGCGGTGGAGGGCACGGAGTCACCTAGTGCAG  21400 fluorescence intensity (a.u.)
15. CTTAATTACTACTAGTATTTTACTTAAGCAAGTCATCTCTCGGAGTCACCTAGTGCAG  20700 fluorescence intensity (a.u.)
16. TGAATGCTGATTGCCTCAGGCCTTCGAGCCCATCAGTTGGCGGAGTCACCTAGTGCAG  20700 fluorescence intensity (a.u.)
17. GTTCAATGATTAATCAGAGTTCTGTGAAGTAGTGTTTATACGGAGTCACCTAGTGCAG  19800 fluorescence intensity (a.u.)
18. TCTAATTAAACTCCCCATCAATTTTCAGCACCTCTACCAACGGAGTCACCTAGTGCAG  19000 fluorescence intensity (a.u.)
19. AGTGATAGAGATTATTAGAATACTATTCTCCTAATTAGTACGGAGTCACCTAGTGCAG  17700 fluorescence intensity (a.u.)
20. AAATTTAGGTTAATTGGATCCATACCATTATAAATGTGATCGGAGTCACCTAGTGCAG  14100 fluorescence intensity (a.u.)
21. AAACAATTATCGATAATAAATATATCCTATTAGTACTTAGCGGAGTCACCTAGTGCAG  13500 fluorescence intensity (a.u.)
22. CTTGACTGAGATGCTGTTGATGAGACAGAAGAAGACAGAACGGAGTCACCTAGTGCAG  13300 fluorescence intensity (a.u.)
23. TTATGTAATTATTAATTCTTTTCCTATCATTTAATTTATTCGGAGTCACCTAGTGCAG  12400 fluorescence intensity (a.u.)
24. AGTATCTATTATTAATTGTTTGTTCCATTCTGGCTTGTAGCGGAGTCACCTAGTGCAG  12000 fluorescence intensity (a.u.)
25. AATATACTTAATTACCTCTATTAGTTAATATACTTAACACCGGAGTCACCTAGTGCAG  12000 fluorescence intensity (a.u.)
26. CTACCATCATTTTGGGCTCTAATGTTTCAAATGACATTCCCGGAGTCACCTAGTGCAG  11400 fluorescence intensity (a.u.)
27. AACAAACTGCCAGATAAATTACCCTTCTTCCAGCTCGGATCGGAGTCACCTAGTGCAG  11000 fluorescence intensity (a.u.)
28. TCCGTCTTGCCCATTGGCTGATTGGCTTCGCGCTGCAGTCCGGAGTCACCTAGTGCAG  9010 fluorescence intensity (a.u.)
29. AAATTCAATCATAGCTACAAACATTGACATATATTTATCTCGGAGTCACCTAGTGCAG  7520 fluorescence intensity (a.u.)
30. TACATATAATTAAACTGTACTAGTAGAGACAACCAGAGAACGGAGTCACCTAGTGCAG  7360 fluorescence intensity (a.u.)
31. CATAAATCAACCAAACTATATGTTTGCAGCACATCTGCACCGGAGTCACCTAGTGCAG  7200 fluorescence intensity (a.u.)
32. ATAAGATTAGCACACACACTAATCCAATTCCAACCCAATCCGGAGTCACCTAGTGCAG  7050 fluorescence intensity (a.u.)
33. TGATGCTGAGAAATATCTTGATTGGGAGATGGCAATAGAGCGGAGTCACCTAGTGCAG  6700 fluorescence intensity (a.u.)
34. CTAAAATGTATATAATGAAATCTCAATTGGAATCTCATGCCGGAGTCACCTAGTGCAG  6210 fluorescence intensity (a.u.)
35. TAACCACTGAAGACATCATGATTGCTACTAGTTTACAATCCGGAGTCACCTAGTGCAG  5790 fluorescence intensity (a.u.)
36. ACACATAACTTTTCTATCACATCGTACCAATTTCAACCAACGGAGTCACCTAGTGCAG  5510 fluorescence intensity (a.u.)
37. ATTATTTAATTAGTTCCTGGACTTTGTGTATTATACTACTCGGAGTCACCTAGTGCAG  5360 fluorescence intensity (a.u.)
38. ATTGGTCAAATTTTAAATATTGATTTGCTTAGACTTCTTACGGAGTCACCTAGTGCAG  5320 fluorescence intensity (a.u.)
39. TTGTCATTTAATTTTAGAAATAGAAAGGGAATAGACATATCGGAGTCACCTAGTGCAG  4860 fluorescence intensity (a.u.)
40. AGCCGTTAGCATATTAGTTTCAATCACACGCACTGCTACCCGGAGTCACCTAGTGCAG  4760 fluorescence intensity (a.u.)
41. ATGTCAATTTTCTCGCGTCCGTCCTATCTCTCGTGTTTTACGGAGTCACCTAGTGCAG  4620 fluorescence intensity (a.u.)
42. GAAGGATTAATGAATTAACCACGTGCGCAAAATCACACGTCGGAGTCACCTAGTGCAG  4560 fluorescence intensity (a.u.)
43. AAGACTAATTTCCAACGCTAATAAAATACTGCAAGGACAACGGAGTCACCTAGTGCAG  4510 fluorescence intensity (a.u.)
44. TTTCTTCGATTAATGTGGTAATTTCTAGCCTCCACAGTGACGGAGTCACCTAGTGCAG  4220 fluorescence intensity (a.u.)
45. TTGATTCAATAAATGGAGAATGTAATAATTTTATATGTAGCGGAGTCACCTAGTGCAG  4110 fluorescence intensity (a.u.)
46. CTTAGCATGCAGGTCATTGATTGATGATGCACGCTCGTTGCGGAGTCACCTAGTGCAG  4100 fluorescence intensity (a.u.)
47. ATCTGTGTAGTCAATTATATTCTCCCTGGGGCCAAACGAACGGAGTCACCTAGTGCAG  4100 fluorescence intensity (a.u.)
48. TTTGAATTATATCTAATTCAAATTTGAATTTGAATTCAAACGGAGTCACCTAGTGCAG  4000 fluorescence intensity (a.u.)
49. ATTTGTAATAAAATTTCAAACAATTTAACAAAATGCCCGCCGGAGTCACCTAGTGCAG  3910 fluorescence intensity (a.u.)
50. GTATGTTGTAATTAAGGAAACACGTAACTTCTATACCCCGCGGAGTCACCTAGTGCAG  3850 fluorescence intensity (a.u.)
51. TTTTAATTTTAGCTTTCCACCGCCCTGCACATGTAACTGCCGGAGTCACCTAGTGCAG  3270 fluorescence intensity (a.u.)
52. GCCAATCAGAGGTTATCATGTCGTAGCACTATTGTCAACTCGGAGTCACCTAGTGCAG  3210 fluorescence intensity (a.u.)
53. TACTAATCCAACAAATAATTTTGCTTGAGTTCATATGTTGCGGAGTCACCTAGTGCAG  3140 fluorescence intensity (a.u.)
54. CCTTGATCGACGATCACTGCTCGGGGATCCAACCTAGATCCGGAGTCACCTAGTGCAG  3140 fluorescence intensity (a.u.)
